Nc1ccc(S(N)(=O)=O)cc1
Conditions	solubility (mole fraction)
in acetone, 283.45 K	0.0897
in acetone, 288.45 K	0.0918
in acetone, 293.35 K	0.0945
in acetone, 298.15 K	0.0969
in acetone, 303.15 K	0.0994
in acetone, 308.15 K	0.0983
in acetone, 313.15 K	0.104
in acetone, 318.15 K	0.11
in acetone, 323.15 K	0.116
in isopropanol, 283.25 K	0.000534
in isopropanol, 288.95 K	0.000814
in isopropanol, 293.65 K	0.00105
in isopropanol, 298.15 K	0.00164
in isopropanol, 303.15 K	0.00212
in isopropanol, 308.15 K	0.0031
in isopropanol, 313.15 K	0.00383
in isopropanol, 318.15 K	0.00498
in isopropanol, 323.15 K	0.00674
in n-butanol, 283.15 K	0.000771
in n-butanol, 288.75 K	0.00102
in n-butanol, 293.25 K	0.00128
in n-butanol, 298.25 K	0.00166
in n-butanol, 303.15 K	0.00203
in n-butanol, 308.15 K	0.00255
in n-butanol, 313.15 K	0.00309
in n-butanol, 318.15 K	0.00378
in n-butanol, 323.15 K	0.0045
in n-propanol, 283.35 K	0.00151
in n-propanol, 288.55 K	0.00197
in n-propanol, 293.15 K	0.00229
in n-propanol, 298.35 K	0.00271
in n-propanol, 303.15 K	0.00333
in n-propanol, 308.15 K	0.00386
in n-propanol, 313.15 K	0.00452
in n-propanol, 318.15 K	0.00545
in n-propanol, 323.15 K	0.00622
in sec-butanol, 283.25 K	0.000354
in sec-butanol, 288.15 K	0.000459
in sec-butanol, 293.25 K	0.000597
in sec-butanol, 298.15 K	0.000762
in sec-butanol, 303.15 K	0.000981
in sec-butanol, 308.15 K	0.00139
in sec-butanol, 313.15 K	0.00175
in sec-butanol, 318.15 K	0.00235
in sec-butanol, 323.15 K	0.00282

Reference: BigSolDB 2.1
